The source of these data is publication PMC5836133.

The other results are listed elsewhere or left out. At the low end of the ranking, values are background and their order means little.

This assay concerns T1, GST-NbGlk1(82-244).
T1 sequence: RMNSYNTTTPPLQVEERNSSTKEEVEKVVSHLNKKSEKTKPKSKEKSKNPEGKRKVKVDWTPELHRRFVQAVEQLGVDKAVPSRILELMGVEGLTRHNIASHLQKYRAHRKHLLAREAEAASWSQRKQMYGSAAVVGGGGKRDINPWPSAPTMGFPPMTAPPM
The assay can be described thus: protein-binding microarray.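 Further: rank-based score ranging −0.5 to +0.5 with E above 0.45 taken as significant binding.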 As to conditions: NbGlk1 is a Golden2-like transcription factor of Nicotiana benthamiana; high values mean tight binding; most listed sequences are background and not binding sites; double strand, one strand shown.
AACCGCTC: the binding signal is -0.142 E-score.

CACGATAA returned a binding signal of 0.0777 E-score.

For AGCAAGTA, the binding signal worked out at 0.0349 E-score.

AAACTAAT had a binding signal of 0.0756 E-score.

Take ATTGGGTC: the binding signal is -0.0462 E-score.

AGGATACA displayed a binding signal of 0.037 E-score.

AGAATGTG registered a binding signal of 0.118 E-score.

As for ACGTAAAT, the binding signal is 0.179 E-score.

In turn, AACTTAAA gave a binding signal of 0.162 E-score.

In turn, ATGGGGGA came in with a binding signal of -0.0922 E-score.

Consider AGGCTACT, for which the binding signal was -0.318 E-score.

As to ATTCTCGG, the binding signal turned out to be 0.229 E-score.

Sequence AACGACGA returned a binding signal of -0.0854 E-score.

Sequence ATACACTA returned a binding signal of 0.0993 E-score.

Regarding ATACGCGG, the binding signal was determined as 0.166 E-score.

The sequence AATTCTGT had a binding signal of 0.223 E-score.

For ACCAGTTC, the binding signal is -0.264 E-score.

In turn, AGGTCTGA registered a binding signal of -0.032 E-score.

AGGTGTAC: the binding signal is -0.119 E-score.

ATCTCCTA: the binding signal worked out at 0.337 E-score.

AACATCGG had a binding signal of 0.0869 E-score.

In the case of AGGGGACT, the binding signal is -0.341 E-score.

The sequence AGCGGGAC gave a binding signal of -0.172 E-score.

The sequence AAGGCGAT returned a binding signal of 0.149 E-score.

ATGGCAGG had a binding signal of -0.146 E-score.

Turning to AGACGGCC, the binding signal is -0.335 E-score.

On to AATCCAAT, for which the binding signal was 0.408 E-score.

ACGGATTA gave a binding signal of 0.312 E-score.

In turn, ACCTCAGT yielded a binding signal of -0.208 E-score.

For the sequence ACGACGGC, the binding signal is -0.168 E-score.

For CACCACAG, the binding signal was -0.0322 E-score.

ACATGTTC: the binding signal is -0.0554 E-score.

AAAACTCT gave a binding signal of -0.177 E-score.

In the case of AGAGAATA, the binding signal is 0.243 E-score.

In the case of ATGGACAA, the binding signal was -0.0467 E-score.

ACACGTCT came in with a binding signal of -0.129 E-score.

On to ATCTTTTG, for which the binding signal amounted to 0.24 E-score.

The sequence ACCTGACT had a binding signal of -0.305 E-score.

Sequence ATTCGTCA had a binding signal of 0.199 E-score.

On to AAAGACCC, for which the binding signal is -0.261 E-score.

The sequence ACCACATC had a binding signal of 0.00906 E-score.

As to AAACCCGG, the binding signal was -0.09 E-score.

ACTCTCCT showed a binding signal of -0.108 E-score.

Turning to ATGGCGAA, the binding signal was -0.0345 E-score.

For the sequence ATAGAATC, the binding signal stood at 0.397 E-score.

Sequence ATGTAGAG yielded a binding signal of 0.0493 E-score.

In turn, CACAAATA had a binding signal of 0.207 E-score.

Turning to ACGTCATC, the binding signal is -0.0805 E-score.

For the sequence AGTAAAAA, the binding signal was 0.149 E-score.

In turn, ATGTCATG had a binding signal of 0.0242 E-score.

AAATGCAT returned a binding signal of 0.0634 E-score.

As for AATAGGTC, the binding signal is -0.109 E-score.

AAATAGCC displayed a binding signal of -0.0355 E-score.

Take AACGGAAT: the binding signal was 0.285 E-score.

In the case of CAATTTCA, the binding signal was 0.182 E-score.

As to CAACCAAC, the binding signal is -0.0866 E-score.

The sequence ACACTTCA registered a binding signal of -0.0144 E-score.

With CAAACCGC, the binding signal was -0.118 E-score.

Consider AAACACGC, for which the binding signal was -0.105 E-score.

AAGCGCTT registered a binding signal of -0.0684 E-score.

For AATGATCT, the binding signal was found to be 0.108 E-score.

AGTCCATA came in with a binding signal of -0.118 E-score.

ACGCACGC: the binding signal was -0.0789 E-score.

In turn, AAGTTACT gave a binding signal of -0.0417 E-score.

Sequence AAACTCCT yielded a binding signal of -0.141 E-score.

In the case of CACCGGAG, the binding signal is -0.0961 E-score.

For CAACAAAC, the binding signal stood at 0.13 E-score.

In turn, AACCTCCG gave a binding signal of -0.312 E-score.

The sequence AACTATAT registered a binding signal of 0.0441 E-score.

Turning to CACATACA, the binding signal was 0.185 E-score.

Take AAACTCAA: the binding signal was 0.138 E-score.

Turning to ACGCGTTA, the binding signal was -0.0152 E-score.

Consider AGCCCCGA, for which the binding signal is -0.118 E-score.

AACAACAG came in with a binding signal of -0.125 E-score.

Regarding AAGGGGCT, the binding signal was -0.307 E-score.

As for ACGCGCTA, the binding signal is -0.0689 E-score.

In turn, ACTTGCGC displayed a binding signal of 0.0185 E-score.

In the case of AGGAGTTC, the binding signal is -0.0812 E-score.

ATGAAATA displayed a binding signal of 0.184 E-score.

The sequence ACTGATTA came in with a binding signal of 0.264 E-score.

In turn, ATGATGTA yielded a binding signal of 0.0732 E-score.

In the case of ACAAACTC, the binding signal is -0.0448 E-score.

As to AGGAGCCT, the binding signal is -0.391 E-score.

Regarding AGGCTGCG, the binding signal is -0.232 E-score.

In the case of AGATGAAC, the binding signal is -0.0693 E-score.

ATACCCGG yielded a binding signal of -0.0781 E-score.

The sequence ACACTCAC yielded a binding signal of -0.108 E-score.

Take AACCTGAG: the binding signal was -0.0478 E-score.

For the sequence ACCGTCCA, the binding signal was -0.1 E-score.

Regarding ACGTTGTA, the binding signal is -0.038 E-score.

Consider AGAGCCAG, for which the binding signal was -0.169 E-score.

Sequence AGAATTAT came in with a binding signal of 0.127 E-score.

The sequence ATCCCCAC registered a binding signal of 0.195 E-score.

ATCTCATG: the binding signal was 0.318 E-score.

For ACCCAACG, the binding signal was -0.0017 E-score.

ATGCGTCC yielded a binding signal of -0.192 E-score.

On to ACGGGTAC, for which the binding signal was -0.213 E-score.

As to ATAGCATC, the binding signal was found to be 0.0837 E-score.

In the case of ATAGTAGG, the binding signal is 0.0649 E-score.

As for ATGATACG, the binding signal was found to be 0.162 E-score.

Take ATACCAGA: the binding signal is -0.0668 E-score.

Sequence ACCCCGAG registered a binding signal of -0.174 E-score.

Take AGTGAGAC: the binding signal was -0.138 E-score.

For AAGTTGAC, the binding signal was 0.0279 E-score.

As to AGAACCTC, the binding signal was -0.216 E-score.

Regarding AGACCTTC, the binding signal is -0.266 E-score.

As to AAGGTGTG, the binding signal is -0.129 E-score.

Regarding ACGCGCAT, the binding signal turned out to be 0.00943 E-score.

Turning to ACGTTCGC, the binding signal is -0.177 E-score.

On to ATAAGAAT, for which the binding signal was 0.299 E-score.
